Values marked as one replicate rest on one cluster of the flow cell; about a third of the high ones do not repeat.
System: ATP
Assay: switch fluorescence ratio, 500 uM ATP over buffer (Cy3 cluster intensity, sum of 5 cycles each) (fold (ratio)); higher = stronger signal-on switching upon ATP binding; sequences stand for … in TCGTCGGCAGCGTCAGATGTGTATAAGAGACAGTTTTTTTTTTTTTTTTTTTTTTTTT…TC
Settings: aptamer strand: ATP DNA aptamer (quencher-CACCTGGGGGAGTATTGCGGAGGAAGG + anchor), 100 nM annealed; ATP concentration: 500 uM; one replicate
Method in brief: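 Per cluster, summed Cy3 intensity from the target cycles was divided by that from the buffer cycles to give the fluorescence ratio, then averaged per switch-domain sequence. Clusters outside 100-1000 RFU were excluded. The Cy3-labelled switching-strand clusters, on a modified Illumina MiSeq flow-cell, were annealed to 100 nM quencher-labelled ATP aptamer and imaged in selection buffer, then after 15 min with 500 uM ATP at 22 °C, for five cycles with NaOH stripping and re-annealing between them.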
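Also: ATP exposure 15 min at 22 °C before imaging.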

Sequence	switch fluorescence ratio
CCGAATGCGG	1.03
AAAGCCTTTT	1.24
GACAAAGGCC	1.05
TAGGTCGTCT	1.04
GCGTTTGGCC	0.936
AAAGGTGATT	0.956
CCCCTTATGA	1
CGTTCAACA	0.979
TAGTTGTGGG	0.99
TGAAACTAGA	1.03
TTGAAATCGG	0.999
TCATGCTTCT	1.01
TGTCGATAGA	1.03
CGCCATGTGG	0.992
CCTGTCAAGA	1.16
AATTCATGAT	1.04
GGCGGCGATT	1.02
AATTTCTACT	1.01
ACTATCTCCT	1.07
GTCGAGAATA	1.01
ACTGTATTAA	1.19
GGAGGCACGC	0.998
TTAGAGAGCA	1
AAGCTAATCG	0.989
GTCGACAGGA	1.03
TAAGCGACAG	0.97

Sequence	switch fluorescence ratio
ACTATACCGC	1.23
CGCATTCTGT	1.1
GTTACGTTAG	1.03
TAACATATCG	0.988
CCGCTAACCT	2.81
CGGTGAATAA	1.04
GGTACGGGCG	0.926
CATAATCTGT	1.03
TGTTACTGGG	0.957
AATTTTCTAA	1.03
AAGGGGTAGA	1.03
AGCACGTCTT	0.995
CTCTGTTATT	1.27
ACGATTCCCG	1.02
GAGTGGCCAA	0.879
AACTGTGGCG	0.967
GTGGAAAATG	0.963
TGAGATTTAT	0.996
CAGCTCGGGA	0.988
TGTTCGCCGG	1.02
TCAAAGCCAG	0.972
GTGGAGGCGA	1
AAATTTCTCC	1.05
TTGGATTAGC	0.993
AAGAGAGCGT	0.996
ACCGGATGCC	1.04

Sequence	switch fluorescence ratio
GAGATGATTA	1.01
AGTCGTTCTT	0.941
AAAACAGCTA	1.03
TCCTGGGAGA	1
TCAGTGCGTT	0.978
AAAACTGAAG	1.03
AGTTAGCTAG	1.01
AGGTGTCGT	0.994
ACAAATGTGG	0.975
CTCCAGACCT	1.39
TCGTTGCGGC	0.889
AAAGGTTAA	1.03
AACTCTTCGA	1.02
GCAGGTAACG	1.02
GTCATAATGG	0.983
CGTTTAGATG	1.01
TGCGGTAATA	0.971
ACGCCGGTGT	1.02
GTGTTTAACA	1.03
TGCGTATTAG	1.01
TCATTCCAAT	1.02
ACTATCTGGT	0.974
GCTAGCATAA	1.01
AGCATGCGGC	1.06
GAGGCCCGTG	1
TCAGTGTTAA	1.01

Sequence	switch fluorescence ratio
AAAGATTCAG	1.02
TTGATTAGCA	0.961
GGCAGACGCT	0.974
GGCGCGGGAA	1.03
TGGCAACCAT	1.04
GTTACCGGCC	1.37
TACGGCTTGC	1.06
TCGGCGCAC	3.04
CAGGTGAA	1.36
GTTACGTGCA	1.01
CGCGTCTGTA	1.04
TATGTATGGC	0.986
AACGTGAGCA	1.05
AATTCGCGCT	1.21
ACCAGTATAA	1.01
TCTCGGAGTT	1.03
ACATGAATGT	1.02
GCGCTCTTGT	0.995
TGGTTGCATG	0.993
ATGGTTTCCA	1.06
GCTGGTGCGC	0.96
TGTCTAATTG	0.985
GGATTTTGAT	0.973
CCCAACTGGA	1.02
AACCACTGTG	1.04
ATCTCCCCTC	1.16

Sequence	switch fluorescence ratio
TGTTCTTCGG	1.01
GGAGGGTCCG	0.952
AACACCGATT	0.995
ATATGAGGAG	1.02
TTGGGAGCCG	1.03
GATATCTGCG	0.969
ACTCCCTGCT	1.11
TAATAAGATA	0.973
CCGGCTAAG	1.08
AGGTTGATCG	1
CGGAACTTAT	1.01
CGCCGGGCGC	1.02
TATCACTCGA	1.03
ATCGAATTTG	1.01
TATTATGGTA	1.04
ACAAACTAT	1.15
GAGGCCATAT	1.19
CGTGAAAGGG	0.941
ATTGAAGAAA	0.98
TGACATCTAC	1.39
AGCGGAAGC	1.03
TGTATACTA	1.03
TTCCTAGTTA	1.01
CACCTGGGAA	0.963
CCATCTCAGA	0.994
GGAACTAGTT	1.01

Sequence	switch fluorescence ratio
ATTGAGCTCT	1
CGGCGGGAAA	0.983
TTAGTTGTTA	0.996
ATCCCAGGGA	1.1
TAACACGACT	1.07
CGACACATTG	0.979
GGACAGTTTA	0.975
TTTATTCTTG	1.01
CGCAAATGGT	1.92
AACACTCGTT	0.966
AATTGGCCAA	0.966
TTCGTGGTAG	1.03
AACAAAGGTG	1.53
TACCGGAAG	1.1
TTCAGTGGG	0.993
AGAGCTTTCT	0.977
CAAGGCTGGA	0.964
TTGATGTTGA	0.982
CCACGCTAAA	2.02
CTTCCGTATA	4.24
GAACTCCGAA	3.49
ATTCCTCATA	1.05
TTATGGATTA	0.986
